Laboratory results as given in PubChem BioAssay AID493208 (National Center for Advancing Translational Sciences (NCATS), 2011).
The campaign covered roughly 44,000 compounds. About 340 (0.77%) were called active. Inconclusive results (about 5%) are left out. Calls follow the shape of the dose curve; as a rule, active = well fitted inhibition curve with a large enough effect; inconclusive = small, poorly fitted or top-dose-only effect; inactive = flat fitted curve, though single readings scatter. The list shows a part of the results.

Assay: Acumen qHTS Assay for Inhibitors of the mTORC1 Signaling Pathway in MEF (Tsc2-/-, p53-/-) Cells: Sytravon;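 also: plate controls were DMSO for no effect and rapamycin for full effect; nearly all actives have a fitted effect of over 50% in size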
Conditions: phospho-rpS6 immunofluorescence/PI, 24 h; series mostly up to 38.3 µM; activity change, negative = inhibition: at the top concentration
In short: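 Plate MEFs (Tsc2-/-, p53-/-, empty vector) in DMEM/10% FBS; after 24 h add compound, incubate 24 h at 37 degree Celsius; fix in PFA/TX-100, block, stain phospho-rpS6 and 10 uM PI; scan at 488 nm; report % positive cells.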

Activity change, negative = inhibition, inactive:
CCCOc1ccc(C2c3c(oc4ccc(F)cc4c3=O)C(=O)N2CCc2ccc(OC)cc2)cc1 (stereo unspecified) 0.488%
CC(=O)Nc1nonc1-c1nnc(SCC(=O)Nc2ccc(C)c(Cl)c2)n1C -8.37%
CCOc1ccc2c(c1)c(=O)c(S(=O)(=O)c1ccc(C)cc1)cn2Cc1ccccc1Cl -17.3%
Cc1ccc(CNC(=O)CN2C(=O)CC(c3ccc(C)c(C)c3)=Nc3ccccc32)cc1 -14.1%
CCCCOC(=O)c1ccc(Nc2ncnc3c2cnn3-c2cccc(C)c2)cc1 8.23%
Cc1ccc(-c2nnc3c4ccccc4c(C)nn23)cc1NC(=O)c1cccc(Br)c1 3.95%
Clc1cccc(-n2cc(-c3ccccc3)c3c(NC4CCCC4)ncnc32)c1 9.7%
COc1ccccc1NC(=O)CSc1nc2c(oc3ccccc32)c(=O)n1Cc1ccco1 -9.51%
O=C(NCc1cccc(Cl)c1)NCc1noc2ccccc12 -6.37%
COc1cccc(N2CCN(c3ncnc4c3c(-c3ccccc3)cn4-c3ccc(F)cc3)CC2)c1 15.1%
CCCCN(CC)C(=O)CCCn1c(=O)c2cccn2c2ccccc21 11.5%
COc1ccc(CNC(=O)CCNS(=O)(=O)c2ccc3c(c2)CCCC(=O)N3)cc1 -2.23%
Cc1ccc(Cn2c(CCNC(=O)C(C)C)nc3ccccc32)cc1 -4.89%
Cc1ccc(Cl)cc1N(C)C(=O)C1CCCN(c2ncnc3onc(-c4ccc(F)cc4)c23)C1 (stereo unspecified) -0.165%
O=C(Cn1nc(-c2ccc(Cl)cc2)ccc1=O)NCCc1ccccc1 13%
CCOC(=O)CCc1c(C)nc2c(c(C)nn2-c2ccc(C)cc2)c1C -8.84%
O=C(C1CCC1)N1CCc2cc(S(=O)(=O)NCCc3ccccc3)ccc21 -0.828%
CCOc1ccc(C(=O)c2cn(CC(=O)Nc3ccc(F)c(F)c3)c3cc4c(cc3c2=O)OCCO4)cc1 -11.5%
CSc1ncc(Cl)c(C(=O)Nc2c(C(=O)c3ccc(C)c(F)c3)oc3ccccc23)n1 -8.47%
COc1cccc(NC(=O)CCc2nc(-c3cccs3)no2)c1 -2.62%
CCOc1ccc(C2C(=O)N(C3CCCCC3)CC(=O)N2CCC2=CCCCC2)cc1OC (stereo unspecified) -23.8%
Cc1cccc(OC(=O)c2cc(-c3ccc4c(c3)OCCO4)on2)c1C 3.43%
COc1cccc(CNC(=O)C(Cc2ccccc2)NS(=O)(=O)c2ccc3c(c2)oc(=O)n3C)c1 (stereo unspecified) -7.17%
Cc1cc2[nH]c(=O)c(=O)[nH]c2cc1S(=O)(=O)Nc1ccc(OC(F)(F)F)cc1 1.46%
COc1ccc(-c2noc(CSc3nc(N)cc(=O)[nH]3)n2)cc1 -1.55%
Cc1cccc(N2CCN(c3ccc(NC(=O)c4ccccc4)cc3C(=O)O)CC2C)c1 (stereo unspecified) -0.614%
Cc1cccc(NC(=O)c2ccc3nc(CCc4ccccc4)oc3c2)c1C -0.486%
Cc1ncc(CO)c2c1Oc1nc(-c3ccc(F)cc3)nc(SCc3ccc(F)cc3Cl)c1C2 3.79%
O=C(NCc1ccc(F)cc1)c1ccc2c(c1)nc1n2CCCCC1 2.74%
O=C(Nc1ccccc1)c1ccc2c(O)c(S(=O)(=O)c3ccc(Cl)cc3)c(=O)[nH]c2c1 -5.74%
Cc1cc(Nc2cccc(Cl)c2)nc2ccc(NC(=O)c3cccc(N(C)C)c3)cc12 -7.15%
Cc1cc(O)c2c(C)c(CC(=O)N3CCCCC3)c(=O)oc2c1 -2.32%
CCCS(=O)(=O)N1CCC(N2CCN(Cc3ccc(F)cc3)C(=O)C2=O)CC1 0%
COc1ccc(-c2noc(-c3nnn(-c4ccc(C(C)C)cc4)c3C)n2)cc1OC -9.14%
CCOC(=O)c1ccc(NC(=O)CN2Cc3ccccc3C2=O)cc1 -1.24%
COc1ccccc1C(=O)Nc1onc2c1CCCC2 -1.86%
CCOc1ccccc1C1C(C(=O)Nc2ccccc2)=C(C)Nc2c(C(=O)Nc3ccc(F)cc3)cnn21 (stereo unspecified) 1.52%
CCn1cc(C(=O)N2CCN(c3ccc(OC)cc3)CC2)c2cc(OC)c(OC)cc2c1=O 0.271%
O=S(=O)(c1ccc2nc(Nc3cccc(F)c3)ccc2c1)N1CCCC1 0.834%
Cc1ccc(NC(=O)Cn2cc(C(=O)c3ccco3)c3ccccc32)cc1 -7.58%
CCOc1ccc(-c2cccc(NS(=O)(=O)c3ccccc3C(F)(F)F)c2)nn1 4.81%
Cc1ccccc1Cn1c2ccccc2c2cnn(CC(=O)N3CCC(C)CC3)c(=O)c21 0.342%
CCc1ccc(NC(=O)N2CCC(N3CCN(Cc4ccc(C)cc4)C(=O)C3=O)CC2)cc1 -0.672%
COc1ccc(-c2cc3nccc(-c4cc(Cl)c(C)cc4O)n3n2)cc1 -19.5%
CCn1c(C(=O)N2CCCC(C(=O)N3CCN(c4ccccc4)CC3)C2)cc2sccc21 (stereo unspecified) 1.04%
CCOc1ccccc1NC(=O)CSC1=Nc2ccccc2C2=NC(CC(=O)NCc3ccc4c(c3)OCO4)C(=O)N12 (stereo unspecified) 4.34%
Cc1nn(CC(=O)NCCc2ccccc2)c(=O)c2c1sc1ccccc12 -3.78%
O=c1cc(-c2ccccc2)n2c(SCc3ccc(Br)cc3)nnc2[nH]1 -11%
Cc1ccc(S(=O)(=O)NCC(c2ccc(N(C)C)cc2)N2CCc3ccccc32)cc1 (stereo unspecified) 0%
CCCCSCCCNC(=O)c1c[nH]c2ccc(S(=O)(=O)Nc3cccc(OC)c3)cc2c1=O -4.03%
Cc1cc2nc(N(Cc3cccnc3)C(=O)c3ccc(Cl)s3)sc2cc1C -2.68%
COc1ccc(-n2ccnc(NCCc3ccc(Cl)cc3)c2=O)cc1OC 1.69%
COc1ccccc1CN1C(=O)C(=O)c2cccc(C)c21 -2.1%
O=C(Cc1ccccc1)Nc1nnc2n1CCS2 1.78%
CC(=O)N1c2ccc(S(=O)(=O)N(C)CC(=O)N(Cc3ccccc3)C(C)C)cc2CC1C (stereo unspecified) -3.48%
CC(C)(C)c1ccc(C(=O)N2CCN(CCc3ccccn3)CC2)cc1 0.178%
CCC(C)NC(=O)Cn1c(=O)n(-c2ccc(C)c(C)c2)c(=O)c2c(C)c(C(=O)N(CC)CC)sc21 (stereo unspecified) 0.708%
CCOc1ccccc1C(=O)N1CC(=O)Nc2ccc(C)cc2C1c1ccccc1 (stereo unspecified) -20.8%
Cc1ccc(CN2c3ccccc3-c3nc(SCC(=O)Nc4c(C)cc(C)cc4C)ncc3S2(=O)=O)cc1 -7.95%
CCOc1ccccc1NC(=O)N1CCc2c(sc3c2CCCC3)C1c1ccccc1 (stereo unspecified) 0%
O=C(OCc1ccccc1Cl)c1ccc(-c2nnn(Cc3ccc(F)cc3)n2)cc1 9.8%
Cc1nn2c(=O)cc(COc3ccc(/C=C(\C#N)C(=O)Nc4ccccc4)cc3Cl)nc2s1 0.739%
Brc1ccc2c(c1)NC(c1cccnc1)=NC(c1ccccc1)=N2 -3.38%
CCOc1cc(C(=O)NCc2nc(-c3cccc(C)c3)no2)cc(OCC)c1OCC 3.55%
COC(=O)c1ccccc1NC(=O)c1cc(CN2CCOCC2)on1 0%
CCc1cccc(C)c1Nc1c(-c2cccs2)nc2nc(C)cc(C)n12 -10.7%
CCC(=O)Nc1ccc(CC)cc1-c1nc2ccccc2n(CC(=O)Nc2ccccc2C)c1=O -3.97%
Cc1ccc(NC(=O)Cn2c(=O)oc3cc(S(=O)(=O)N4CCCCC4)ccc32)c(C)c1 -9.79%
COc1ccc(-c2onc(C)c2C)cc1S(=O)(=O)Nc1cc(Cl)ccc1C 0%
O=C(CSc1nc2ccccc2nc1Cc1ccccc1F)Nc1cccc(C(F)(F)F)c1 -4.23%
CCN(CC)c1ccc(NC(=O)CCS(=O)(=O)c2ccc3c(c2)oc(=O)n3C)c(C)c1 4.62%
Cc1ccc(CNc2ncnc3onc(C)c23)cc1 -8.67%
CCCOc1ccc(C2c3c(-c4ccccc4O)n[nH]c3C(=O)N2Cc2cccnc2)cc1 (stereo unspecified) -13%
CC(C)OCCCn1c(=O)c2ccccc2n2c(-c3cc(Cl)ccc3O)nnc12 0%
COc1cc(C(=O)Nc2ccc(-c3nc4ccccc4o3)c(O)c2)cc(OC)c1OC -2.87%
Cc1cn2c(=O)cc(COC(=O)c3ccc(NC(=O)COc4ccc(C)c(C)c4)cc3)nc2s1 16.7%
COc1cc2c(cc1OC)C(COc1ccc(F)cc1)N(C(=O)Cc1ccccc1)CC2 (stereo unspecified) 11.3%
CCc1ccccc1NC(=O)CN1C(=O)c2cccnc2Sc2ccccc21 -2.36%
Cc1ccc(Cn2c(CNC(=O)Cc3cccc([N+](=O)[O-])c3)nc3cccnc32)cc1 -4.78%
CC(NC(=O)CSc1nc(-c2cccc(Cl)c2)nc2cc(=O)[nH]n12)c1nc2ccccc2n1C (stereo unspecified) 11.3%
COCc1nc2ccccc2n1Cc1cccc(C)c1 -0.896%
CCn1c(=N)c(C(=O)NCC2CCCO2)cc2c(=O)n3cc(C)ccc3nc21 (stereo unspecified) -6.04%
O=S(=O)(NCC(c1ccccc1)N1CCc2ccccc21)c1ccccc1 (stereo unspecified) 2.06%
CCn1c(=O)cc(OCC(=O)N2CCN(c3cccc(Cl)c3)CC2)c2ccccc21 0.624%
CCCOc1ccc(NC(=O)CC2C(=O)N(c3ccc(F)cc3)C(=O)N2CC(C)C)cc1 (stereo unspecified) -1.74%
CCCCOc1ccc(CNC(=O)C2CCCN(c3nnc(-n4c(C)ccc4C)s3)C2)cc1 (stereo unspecified) -4%
COc1cc(C(=O)N2CCC(c3nc4ccccc4s3)CC2)cc(OC)c1OC -1.71%
COc1ccc(C2=C(C)C(=NCc3ccc(OC(C)C)cc3)NS2(=O)=O)cc1 -7.7%
Cc1ccc2c(c1)sc1nc(=O)n(-c3ccc(Cl)c(Cl)c3)c(=O)n12 0.715%
Cc1ccc(S(=O)(=O)N2CCN(Cc3ccc4c(c3)OCO4)CC2)cc1 3.28%
CCc1ccc(-c2cc(C)no2)cc1S(=O)(=O)Nc1cc(OC)c(OC)c(OC)c1 -0.516%
COc1ccc(C(=O)NCCn2cc(SCC(=O)Nc3ccc(F)cc3)c3ccccc32)cc1 3.02%
CC(=O)Nc1ccc(S(=O)(=O)Nc2cccc(-c3ccc(N4CCCCCC4)nn3)c2)cc1 -1.29%
CCNc1ccc(-c2nc(-c3ccncc3)no2)cc1[N+](=O)[O-] 0%
Cc1nn(CCCC(=O)Nc2cccc(C(F)(F)F)c2)c(=O)c2nn(-c3ccccc3)c(C)c12 -1.67%
CCn1cc(C(=O)NCCc2ccc(Cl)cc2)c(=O)c2cc(S(=O)(=O)N3CCCCCC3)ccc21 5.97%
